Data reported in the supplement of paper PMC4967469.
A lower IC50 marks a more sensitive line; where the fit passes the top or lowest dose, that dose stands as a limit. AUC is the area under the same curve over the 256-fold range up to the top dose, as a fraction; the more sensitive the line, the further below 1. A top dose marked as inferred comes from the curve model; the source does not state it.

Legend:
FR-180204 = compound: Nc1[nH]nc2nnc(-c3c(-c4ccccc4)nn4ccccc34)cc12 [FR-180204]; experiment: Viability of human cancer cell lines after 72 h of drug (GDSC screen); conditions: top dose 20 µM; top dose inferred
Procedure: (§1)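 Human cancer cell lines in 384-well plates, medium with 10% serum, drug for 72 h over a 256-fold dose range (nine 2-fold or five 4-fold steps up to the top dose). Adherent lines were fixed and stained with the nucleic acid dye Syto60, suspension lines read with resazurin; signal relative to control wells, capped at 0 and 100%. One two-parameter sigmoid per drug and line, fitted in a mixed model over all curves with the slope shared within a line.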

FK866 = compound: O=C(/C=C/c1cccnc1)NCCCCC1CCN(C(=O)c2ccccc2)CC1 [FK866]; experiment: as above; conditions: top dose 1 µM; top dose inferred
Procedure: as §1

## SNU-C1 (large intestine, suspension)
FR-180204
  AUC: 0.975
  IC50: > 20 µM
FK866
  AUC: 0.664
  IC50: 222 nM

## SNU-C2B (large intestine, adherent)
FR-180204
  AUC: 0.964
  IC50: > 20 µM
FK866
  AUC: 0.583
  IC50: 114 nM

## SNU-C5 (large intestine, adherent)
FR-180204
  AUC: 0.946
  IC50: > 20 µM
FK866
  AUC: 0.218
  IC50: 8.4 nM

## SR (lymphoid neoplasm, suspension)
FR-180204
  AUC: 0.972
  IC50: > 20 µM
FK866
  AUC: 0.245
  IC50: 12.7 nM

## ST486 (Burkitt lymphoma, suspension)
FR-180204
  AUC: 0.893
  IC50: 19.2 µM
FK866
  AUC: 0.086
  IC50: < 3.91 nM

## SU8686 (pancreas, adherent)
FR-180204
  AUC: 0.98
  IC50: > 20 µM
FK866
  AUC: 0.862
  IC50: > 1000 nM

## SU-DHL-4 (B-cell lymphoma, suspension)
FR-180204
  AUC: 0.997
  IC50: > 20 µM
FK866
  AUC: 0.978
  IC50: > 1000 nM

## SU-DHL-5 (B-cell lymphoma, suspension)
FR-180204
  AUC: 0.994
  IC50: > 20 µM
FK866
  AUC: 0.019
  IC50: < 3.91 nM

## SU-DHL-6 (B-cell lymphoma, suspension)
FR-180204
  AUC: 0.982
  IC50: > 20 µM
FK866
  AUC: 0.419
  IC50: 39.7 nM

## SU-DHL-10 (B-cell lymphoma, suspension)
FR-180204
  AUC: 0.998
  IC50: > 20 µM
FK866
  AUC: 0.321
  IC50: 23.1 nM

## SU-DHL-16 (B-cell lymphoma, suspension)
FR-180204
  AUC: 0.996
  IC50: > 20 µM
FK866
  AUC: 0.03
  IC50: < 3.91 nM

## SUIT-2 (pancreas, adherent)
FR-180204
  AUC: 0.92
  IC50: > 20 µM
FK866
  AUC: 0.553
  IC50: 87.6 nM

## SUP-HD1 (Hodgkin lymphoma, suspension)
FR-180204
  AUC: 0.986
  IC50: > 20 µM
FK866
  AUC: 0.199
  IC50: 8.45 nM

## SUP-M2 (anaplastic large cell lymphoma, suspension)
FR-180204
  AUC: 0.994
  IC50: > 20 µM
FK866
  AUC: 0.207
  IC50: 11.5 nM

## SUP-T1 (T-cell lymphoblastic leukaemia, suspension)
FR-180204
  AUC: 0.985
  IC50: > 20 µM
FK866
  AUC: 0.069
  IC50: < 3.91 nM

## SW13 (adrenal gland, adherent)
FR-180204
  AUC: 0.987
  IC50: > 20 µM
FK866
  AUC: 0.636
  IC50: 150 nM

## SW48 (large intestine, adherent)
FR-180204
  AUC: 0.938
  IC50: > 20 µM
FK866
  AUC: 0.588
  IC50: 109 nM

## SW156 (kidney, adherent)
FR-180204
  AUC: 0.964
  IC50: > 20 µM
FK866
  AUC: 0.79
  IC50: 500 nM

## SW620 (large intestine, adherent)
FR-180204
  AUC: 0.983
  IC50: > 20 µM
FK866
  AUC: 0.187
  IC50: 8.41 nM

## SW626 (ovary, adherent)
FR-180204
  AUC: 0.949
  IC50: > 20 µM
FK866
  AUC: 0.649
  IC50: 176 nM

## SW684 (fibrosarcoma, adherent)
FR-180204
  AUC: 0.983
  IC50: > 20 µM
FK866
  AUC: 0.952
  IC50: > 1000 nM

## SW756 (cervix, adherent)
FR-180204
  AUC: 0.983
  IC50: > 20 µM
FK866
  AUC: 0.773
  IC50: 464 nM

## SW780 (bladder, adherent)
FR-180204
  AUC: 0.986
  IC50: > 20 µM
FK866
  AUC: 0.643
  IC50: 161 nM

## SW837 (large intestine, adherent)
FR-180204
  AUC: 0.96
  IC50: > 20 µM
FK866
  AUC: 0.879
  IC50: > 1000 nM

## SW872 (soft tissue, adherent)
FR-180204
  AUC: 0.986
  IC50: > 20 µM
FK866
  AUC: 0.516
  IC50: 68.8 nM

## SW900 (lung squamous cell carcinoma, adherent)
FR-180204
  AUC: 0.965
  IC50: > 20 µM
FK866
  AUC: 0.672
  IC50: 205 nM

## SW948 (large intestine, adherent)
FR-180204
  AUC: 0.971
  IC50: > 20 µM
FK866
  AUC: 0.607
  IC50: 141 nM

## SW962 (urogenital system, adherent)
FR-180204
  AUC: 0.965
  IC50: > 20 µM
FK866
  AUC: 0.648
  IC50: 179 nM

## SW982 (soft tissue, adherent)
FR-180204
  AUC: 0.977
  IC50: > 20 µM
FK866
  AUC: 0.528
  IC50: 74.9 nM

## SW1088 (glioma, adherent)
FR-180204
  AUC: 0.974
  IC50: > 20 µM
FK866
  AUC: 0.702
  IC50: 278 nM

## SW1116 (large intestine, adherent)
FR-180204
  AUC: 0.985
  IC50: > 20 µM
FK866
  AUC: 0.913
  IC50: > 1000 nM

## SW1271 (small cell lung carcinoma, adherent)
FR-180204
  AUC: 0.896
  IC50: > 20 µM
FK866
  AUC: 0.967
  IC50: > 1000 nM

## SW1417 (large intestine, adherent)
FR-180204
  AUC: 0.954
  IC50: > 20 µM
FK866
  AUC: 0.927
  IC50: > 1000 nM

## SW1463 (large intestine, adherent)
FR-180204
  AUC: 0.975
  IC50: > 20 µM
FK866
  AUC: 0.832
  IC50: > 1000 nM

## SW1573 (lung adenocarcinoma, adherent)
FR-180204
  AUC: 0.972
  IC50: > 20 µM
FK866
  AUC: 0.885
  IC50: > 1000 nM

## SW1710 (bladder, adherent)
FR-180204
  AUC: 0.954
  IC50: > 20 µM
FK866
  AUC: 0.475
  IC50: 53.4 nM

## SW1783 (glioma, adherent)
FR-180204
  AUC: 0.991
  IC50: > 20 µM
FK866
  AUC: 0.709
  IC50: 226 nM

## SW1990 (pancreas, adherent)
FR-180204
  AUC: 0.976
  IC50: > 20 µM
FK866
  AUC: 0.894
  IC50: > 1000 nM

## Saos-2 (osteosarcoma, adherent)
FR-180204
  AUC: 0.976
  IC50: > 20 µM
FK866
  AUC: 0.75
  IC50: 456 nM

## SiHa (cervix, adherent)
FR-180204
  AUC: 0.987
  IC50: > 20 µM
FK866
  AUC: 0.216
  IC50: 7.9 nM

## T47D (breast, adherent)
FR-180204
  AUC: 0.96
  IC50: > 20 µM
FK866
  AUC: 0.599
  IC50: 135 nM

## T84 (large intestine, adherent)
FR-180204
  AUC: 0.972
  IC50: > 20 µM
FK866
  AUC: 0.885
  IC50: > 1000 nM

## T98G (glioma, adherent)
FR-180204
  AUC: 0.983
  IC50: > 20 µM
FK866
  AUC: 0.245
  IC50: 12.4 nM

## T-24 (bladder, adherent)
FR-180204
  AUC: 0.968
  IC50: > 20 µM
FK866
  AUC: 0.983
  IC50: > 1000 nM

## T-T (oesophagus, adherent)
FR-180204
  AUC: 0.976
  IC50: > 20 µM
FK866
  AUC: 0.271
  IC50: 14 nM

## TC-71 (Ewing sarcoma, adherent)
FR-180204
  AUC: 0.886
  IC50: 15.6 µM
FK866
  AUC: 0.106
  IC50: 4.65 nM

## TCCSUP (bladder, adherent)
FR-180204
  AUC: 0.978
  IC50: > 20 µM
FK866
  AUC: 0.659
  IC50: 184 nM

## TE-1 (oesophagus, adherent)
FR-180204
  AUC: 0.982
  IC50: > 20 µM
FK866
  AUC: 0.975
  IC50: > 1000 nM

## TE-4 (oesophagus, adherent)
FR-180204
  AUC: 0.983
  IC50: > 20 µM
FK866
  AUC: 0.397
  IC50: 32.6 nM
